According to patent US12441811B2, “Compositions and methods for treating serpin B13 disorders” (REGENTS OF THE UNIVERSITY OF MINNESOTA, priority 2019, dated 2025):

Legend:
serpin B13 = assay: ELISA and SPR assays to verify affinity of the humanized and chimeric antibody; assay type: binding
Protocol: (§1) ELISA and SPR assays were performed to verify the affinity of the humanized and chimeric antibody. […] Thermostability (Tm and Tagg values) of the antigen, humanized antibody and chimeric antibody was measured using UNcle system.

[1] = Thermostability (Tm and Tagg) using UNcle system; assay type: physicochemical; conditions: after humanization, compared with chimeric antibody
Protocol: as §1

[2] = test system: human serpinB13 and other clade B serpins; assay: Specificity of human anti-serpinB13 antibodies (ELISA, Luminex-based assay); assay type: binding; conditions: Luminex at 1.0 μg/mL
Protocol: Human anti-serpinB13 mAbs bind specifically to serpinB13, but not to other members of the clade B protein family. To produce human antibody to serpinB13, three rounds of biopanning were performed, using Fab library (1×10^11 antibody specificities), against recombinant human serpinB13 produced in baculovirus and immobilized on solid matrix. Screening of individual clones by ELISA led to DNA fingerprinting and sequencing of three unique clones. Positive antibodies were tested by ELISA for binding to the target antigen and cross-reactivity with other proteins. The Fab fragments were then reformatted into fully human full-length IgG1. […] It was also noticed that these mAbs recognize both mouse and human serpinB13.
Recombinant proteins and their expression. […]
Luminex assay. […] The data were expressed as fluorescence intensity (F.I.) due to serum binding activity in the presence of beads precoated with serpinB13 and after subtracting the average F.I. due to serum binding activity in the presence of beads precoated with control proteins, Gfp and Scgn (e.g. F.I^B13−[F.I.^GFP+F.I.^Scgn]/2). The samples were evaluated based on the level of F.I. and the degree of inhibition of binding to serpin-B13 coated beads with soluble serpinB13 (2.5 μg/mL), compared with the bovine serum albumin (BSA). […]

Molecule | binding affinity for the target antigen (serpin B13) | Tagg [1] | Tm [1] | specificity of binding: serpinB13 versus other clade B serpins [2]
humanized antibody: CDR-grafted humanized B29; heavy chain SEQ ID NO:18, light chain SEQ ID NO:20 (antibody) heavy: EIQLVESGGGLVQPGGSVRLSCAASGYNFKTYGMSWVRQAPGKGLEWMGWINTYSGMPTYADDFKGRFTFSLDTSKNTAYLQINSLRAEDTAVYFCARPLLGLDYWGQGTLVTVSS[human IgG1 constant region omitted] light: DIQMTQSPSSLSASVGDRVTITCKSSQSLLHSDGKTFLNWFQQKPGKSPKLLIYLVSKLESGVPSRFSGSGSGTDFTLTISSLQPEDFATYYCLQHTHFPLTFGQGTKVEIKRTVAAPSVFIFPPSDEQLKSGTASVVCLLNNFYPREAKVQWKVDNALQSGNSQESVTEQDSKDSTYSLSSTLTLSKADYEKHKVYACEVTHQGLSSPVTKSFNRGEC | obvious binding affinity | enhanced | enhanced | 
chimeric antibody: mouse/human chimeric IgG of B29; heavy chain SEQ ID NO:22, light chain SEQ ID NO:24 (antibody) heavy: QIQLVQSGPELKKPGETVKISCKASGYTFTTYGMSWVKQAPGKGLKWMGWINTYSGMPTYADDFKGRFAFSLETSATTAYLQINNLKNEDTATYFCARPLLGLDYWGQGTTLTVSS[human IgG1 constant region omitted] light: DIVMTQTPLSLSVTIGQPASISCKSSQSLLHSDGKTFLNWFLQRPGQSPKLLIYLVSKLESGIPDRFSGSGSGTDFTLKISRVEVEDLGVYYCLQHTHFPLTFGAGTKLEIKRTVAAPSVFIFPPSDEQLKSGTASVVCLLNNFYPREAKVQWKVDNALQSGNSQESVTEQDSKDSTYSLSSTLTLSKADYEKHKVYACEVTHQGLSSPVTKSFNRGEC | obvious binding affinity |  |  | 
mAb2: fully human full-length IgG1 to serpinB13; CLONE2 heavy SEQ ID NO:41, light SEQ ID NO:45 (antibody) heavy: QMQLVQSGGGVVRPGGSLRLSCAASGFTFDDYGMSWVRQAPGKGLEWVSGINWNGGSTGYADSVKGRFTISRDNAKNSLYLQMNSLRAEDTALYYCARESSMTTVTTYLLREVGVGLDFDYWGQGTLVTVSS[human IgG1 constant region omitted] light: ETTLTQSPGTLSLSPGERATLSCRASQTVSGSYLAWYQQKPGQPPRLLIYGASSRATGIPDRFSGSGSGTDFTLTISRLEPEDFAVYYCQDYGSSRTFGQGTKVELKRTVAAPSVFIFPPSDEQLKSGTASVVCLLNNFYPREAKVQWKVDNALQSGNSQESVTEQDSKDSTYSLSSTLTLSKADYEKHKLYACEVTHQGLSSPVTKSFNRGEC |  |  |  | specifically recognize human serpinB13 but no other serpins of clade B family
mAb3: fully human full-length IgG1 to serpinB13; CLONE3 heavy SEQ ID NO:49, light SEQ ID NO:53 (antibody) heavy: QVQLQQWGAGLLKPSETLSLTCAVYGGSFSGYYWSWIRQPPGKGLEWIGEINHSGSTNYNPSLKSRVTISVDTSKNQFSLKLSSVTAADTAVYYCARRYCSGGSCYLVGTGSELDYWGQGTLVTVSS[human IgG1 constant region omitted] light: DIQMTQSPSTLSASVGDRVTITCRASQSISSWLAWYQQKPGKAPKLLIYKASSLEIGVPSRFSGSGYGTEFTLTISSLQPDDFATYYCLQYSTHSTFGQGTRVEIKRTVAAPSVFIFPPSDEQLKSGTASVVCLLNNFYPREAKVQWKVDNALQSGNSQESVTEQDSKDSTYSLSSTLTLSKADYEKHKLYACEVTHQGLSSPVTKSFNRGEC |  |  |  | specifically recognize human serpinB13 but no other serpins of clade B family
